Results published in the supplement of paper PMC11417369.
± gives the standard deviation of the averaged measurements. Some of the results follow.

The sequences below were run on PfAP2-I AP2 domain 3 (GST-tagged) (assay: gcPBM binding intensity (ln(normalized median fluorescence intensity)); higher = stronger DNA binding).
Summary of the method: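 Using an Agilent 4 × 180k array, primer-extended double-stranded 36-bp intergenic genomic probes and negative controls were exposed for 1 h to GST-fused P. falciparum DNA-binding domains expressed in E. coli. Binding was carried out in 1× PBS with 1% milk, 0.2 mg/ml BSA, 0.5% salmon testes DNA and 0.03% Triton X-100, and protein was detected with Alexa488 anti-GST antibody and a 488 nm scan. Binding intensity is the highest Masliner-normalised natural-log median intensity across replicate spots of either probe orientation.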

Row | Sequence | gcPBM binding intensity (ln)
1 | TTGTATTGTATATGCACACATAGAACACTTTTTTTT [CACACA_site4133] | 9.03 ± 0.49
2 | TAAATTTTGTTTAGCACACACACATACATACATACA [CACACA_site3155] | 9.03 ± 0.65
3 | TTGATATACTATGACACATGCAAATAAAACATTATA [TGCATGCA_site535] | 8.03 ± 0.52
4 | TAATCATTTTTAAATTGTACAATTTATATAATAAGT [XGTACX_site6081] | 7.92 ± 0.24
5 | TATATCTGTATCATTACACACATGTATACTTATTTG [CACACA_site6134] | 7.7 ± 0.66
6 | TACCTATATACATACACACACATATAACCAATGTAG [CACACA_site7096] | 8.03 ± 0.39
7 | AGAAGATTAAAAATTGCACACAAAAATATATTTTCT [CACACA_site8359] | 8.27 ± 0.42
8 | TAATAAATAAAAACATGTACATATATACATATATGT [XGTACX_site485] | 7.75 ± 0.36
9 | AAAGACTTTTTATGAGCACACACATATATTATGGAG [CACACA_site8254] | 8 ± 0.63
10 | GATATATAGGTATTTACACACAATGTGAGATCTATA [CACACA_site7575] | 7.79 ± 0.47
11 | TGATAATAAGCATACACACACACACTAAAAAAAAAA [CACACA_site6478] | 8.16 ± 0.47
12 | ATGATTATACAAAATATACACACGTGGACACAAATA [CACACA_site8304] | 8.22 ± 0.66
13 | TTTCTATAATATATATGTACATATATAATATGTCGT [XGTACX_site3676] | 7.74 ± 0.41
14 | AGATAAAATAAATACACACACATAAATACGTACAAA [CACACA_site4739] | 8.23 ± 0.099
15 | TAAAGATGTATTTATTCACACATCTCATATAATGAA [CACACA_site5229] | 7.41 ± 0.49
16 | TTATGTATCCTTATAAGAAAAAAAAAAAAATTCTCT [CACACA_negctrl_site1183] | 7.5 ± 0.5
17 | AATAAAAATATAGGCACACATATTAAAATGAACTTA [CACACA_site830] | 7.85 ± 0.44
18 | TGAATTTAGATATATACACACAAAAGTAAATACAAT [CACACA_site5548] | 7.79 ± 0.49
19 | AATATATACATACATACATGCATACATATATATAAC [TGCATGCA_site371] | 8.03 ± 0.64
20 | TTTAAATATATTCAATCACACACATTCGTTTTTTTT [CACACA_site7962] | 7.71 ± 0.57
21 | GAATATTAAACAAACACACACACATATATATATATA [CACACA_site3382] | 9.32 ± 0.36
22 | AGTAGTCTGGAGAAAAGTACACAGTATCTGGTAACC [XGTACX_site2035] | 7.82 ± 0.54
23 | GTATAAAAATTATATACACACAACAGAATTACATAT [CACACA_site133] | 7.9 ± 0.49

Row | Sequence | gcPBM binding intensity (ln)
24 | GTTTATTGATTTATTTGTACTTATATATATATTTCA [XGTACX_site5098] | 8.07 ± 0.63
25 | TAAATACAGACATATACACACATATATATATATATA [CACACA_site4382] | 9.29 ± 0.43
26 | ATGTATATGTTTTGTTGTACAAGTATTTTATATCTT [XGTACX_site3588] | 7.84 ± 0.53
27 | TTTCAATTTATCAGTGTGCACAAAAATAAAATAAAA | 10.88 ± 0.028
28 | AAAAAAAAAAGACACACACACAATAGTATATAAATC [CACACA_site6579] | 7.74 ± 0.72
29 | TATATATATATATTACGTTTTAAATATACTAATCTT [CACACA_negctrl_site32] | 9.2 ± 0.26
30 | TTTTTATTTTTTCAAGTGCATATTTTTGGCTTCTTA | 8.77 ± 0.31
31 | TAAATTTATATATAGGTGCGCAATTTGATAATAGTT [GTGCAC_site9783] | 9.82 ± 0.19
32 | AAAAAAAAAAAAAATACACACATATATATATATATA [CACACA_site85] | 9.53 ± 0.23
33 | CTTTTTCCTTTATATTGTACATAATTAAAGATAATA [XGTACX_site7014] | 7.95 ± 0.26
34 | TATAAATAGATATATACACACATTTTTAATGATAAA [CACACA_site7299] | 7.51 ± 0.64
35 | TTTTTTATAAATCAAATGAAAAATAAACTATTCAGA [CACACA_negctrl_site1568] | 7.36 ± 0.45
36 | ATACATATAAAAAAGTGTACATATTAAAATAAGTAT [XGTACX_site1310] | 7.83 ± 0.63
37 | TCATACAAACCTATTTGTACATAAGTATAATATATA [XGTACX_site4284] | 7.46 ± 0.28
38 | ATATCCGTTCAAAGATGTACATATATATTCTATAGA [XGTACX_site5354] | 7.8 ± 0.52
39 | AATGCAAATAATAAAACACACAAAAAAAAGAAAAAA [CACACA_site1184] | 7.66 ± 0.62
40 | TATTGCCCTGGACACACACACATATATATATATATA [CACACA_site5389] | 9.3 ± 0.2
41 | TTATGTTATATAAAAAGTACAAATTTTTTTTAATTA [XGTACX_site3435] | 7.53 ± 0.33
42 | ATTATTATTATATATGCATGTAAAATATTAAAGTAC [TGCATGCA_site914] | 8.85 ± 0.57
43 | ATAATATAAACATACACACACACATCTATATTTATA [CACACA_site7381] | 7.89 ± 0.53
44 | TATATATATATATATACACACATATACATATTGTTT [CACACA_site3499] | 9.38 ± 0.77
45 | TCCTACATATAAAAATGTACCCATTGTTTTTTTTTT [XGTACX_site7205] | 7.62 ± 0.64
46 | AATGTATATAGAAACATGCACACGTGGTTGTATATA [CACACA_site3278] | 8.19 ± 0.86

Row | Sequence | gcPBM binding intensity (ln)
47 | TTGTGTTAACTACCATGTACTTATACATCATAGGAA [XGTACX_site6627] | 7.66 ± 0.52
48 | ATTTATGTTATATATACACACACAAAAGAAAAAAAA [CACACA_site8977] | 7.84 ± 0.63
49 | TTTTTGTATGCTTCCCGATTACATTATGTTGTAAAT [CACACA_negctrl_site227] | 8.01 ± 0.76
50 | ATTTCAAATTAATTTACACACTTCATACTAAAAGAC [CACACA_site3176] | 8.2 ± 0.39
51 | TTGATATATAATAATACACACTTACATAATTAATTA [CACACA_site4320] | 7.88 ± 0.37
52 | ATTATATTCTCCTTCACACACAAAAATATTTCATCA [CACACA_site5326] | 8.07 ± 0.49
53 | TTACGATTAAATATAACACACAACATATTTTTAATA [CACACA_site2967] | 7.68 ± 0.4
54 | AAGGATATGAAAAGTAGTACAAAATTTAGAACACCC [XGTACX_site4758] | 8.52 ± 0.18
55 | CACAAAAATTTATACACACACATATATAATATATAT [CACACA_site152] | 7.84 ± 0.59
56 | AAGTATTACAACCACACACACACCTATATATCATAG [CACACA_site7878] | 8.18 ± 0.26
57 | ATCTTTTACGAATACACACACATAAAGAAAAAAAAA [CACACA_site1331] | 8.05 ± 0.42
58 | CTCTATAAATGCTGCACACACATTTAATTATTTAAG [CACACA_site2582] | 9.045 ± 0.064
59 | TATAAATATAAATATACACACATATTTATATTTATA [CACACA_site7053] | 7.67 ± 0.43
60 | TATAAATAAAAACACACACACACATATATATATATA [CACACA_site2268] | 9.29 ± 0.17
61 | AAATGAAATACATCCTGTACATAGTAATGCTAACAA [XGTACX_site6600] | 7.62 ± 0.53
62 | TTTTACAATGAAAGGTGTACAAGTAACAGTAGAACA [XGTACX_site1528] | 8.21 ± 0.45
63 | AACAAATACAGACACACACACACACTAATAAAAAAA [CACACA_site8067] | 8.1 ± 0.19
64 | TATTTTTATATTTTTGCACACATTCTTTACTCTTCA [CACACA_site2211] | 9.39 ± 0.32
65 | AAAAATTTTATATTCACACACATATATATATATATA [CACACA_site624] | 9.43 ± 0.57
66 | GATATATATTAATATACACACACACCGATATATATA [CACACA_site8462] | 8.06 ± 0.61
67 | TTTTGAAACATATGATGTACACGAACATTTAAAAAA [XGTACX_site474] | 9.66 ± 0.4
68 | AATAAATAGATAAGCACACAAGCATATAGACATATA [CACACA_site222] | 7.72 ± 0.49
69 | AAATTCCACCAACACACACACATATAAATAAATAAA [CACACA_site1233] | 8.05 ± 0.25

Row | Sequence | gcPBM binding intensity (ln)
70 | TTTATATTTTATAAATTATTCATAAATATATTTGTA [TGCATGCA_negctrl_site175] | 7.36 ± 0.3
71 | ATAAATAAAGGACACACACACACACTAGAAAAAAAA [CACACA_site5450] | 8.24 ± 0.15
72 | TTGTGCTTGATATCACGGACAAGCTCATATTATATA [XGTACX_site4553] | 8.1 ± 0.16
73 | AAAATAAAATTAGTTGCATGCAACTTAAACAGAAAT [TGCATGCA_site860] | 8.14 ± 0.63
74 | ATGAAAAAATTTATATGTACTTAAAATATAATCATA [XGTACX_site1228] | 7.64 ± 0.35
75 | TATATTATTAAGATATGTACATAATTATAAATTTAA [XGTACX_site6848] | 7.8 ± 0.19
76 | ATATGTAGATGATATTATTACTTTTCAAAAATTCAA [CACACA_negctrl_site933] | 7.58 ± 0.39
77 | TAATAAGAAATAACAGGTACACATATATAAATATTA [XGTACX_site2976] | 7.52 ± 0.41
78 | AAGTATAAAAAAAGGCGTACAAAAAAAAAAAAAAAA [XGTACX_site7309] | 8.24 ± 0.49
79 | TTTTTCATTAATACAAGTACAAAATGATGTTGACAT [XGTACX_site1475] | 7.67 ± 0.47
80 | TGTGCCCAAAATTATGCACACACCTAAAATTAATTT [CACACA_site2914] | 10.3 ± 0.4
81 | ATGGTAGTTCTCCATGCATGCCTTTTTATTATCATA [TGCATGCA_site681] | 7.84 ± 1
82 | TTTTTGTAAAAACACACACACAAACAGAAAAAATAA [CACACA_site2076] | 8.25 ± 0.61
83 | ATTATCATAATGTTCACACATATGGTATATATAGAT [CACACA_site6113] | 7.78 ± 0.53
84 | ACTATTTAGTCTGGTGGTACTTTATATATAATTTCT [XGTACX_site5618] | 8.11 ± 0.49
85 | ATATGTGTATGTGCGTGTACATATCTATACAGTTGT [XGTACX_site6540] | 8.29 ± 0.52
86 | TTTTATCTTTTTTTATTTTAATGTATTATTTTTATG [XGTACX_negctrl_site24] | 7.62 ± 0.65
87 | GAATATAATCTGTATTGTACGAAAGTTGAACACTTG [XGTACX_site8895] | 8.09
88 | TGAGCATAAAAAGGGTGTACTTAAATATATTATATA [XGTACX_site7556] | 8.07 ± 0.27
89 | TTTAGATAATTCATTACACACATGTATTTATATATA [CACACA_site5847] | 7.65 ± 0.57
